Experimental data published in patent EP2395015B1, “Peptides for wound healing” (Gene Signal International SA, priority 2010, dated 2013).
At least one peptide structure holds a part that was inferred or is arguable (an end, a ring closure or a residue). Some compounds share one wording; it may come from a single statement.

How the values were obtained:
trans-dermal wounds = test: Wound healing in mice after topical application; type: in vivo; settings: 0.5 mg/ml (5 mg/kg)
[1] = test system: human microvascular endothelial cells (HMEC); test: In vitro angiogenesis assay (Matrigel tube formation); type: cell-based; settings: 400 µg/ml final concentration, images at 6h post incubation, ranking printed: peptide 7> peptide 10> peptide 11
MAPK (Erk1 and 2) = test: Activation status of MAPK (pErk1/2) in HMEC by western blot; type: cell-based, human; settings: immunoblot pErk1/2
VEGFA [2] = test: VEGFA protein in HMEC culture medium by sandwich ELISA; type: cell-based, human; settings: p < 0.001
VEGFA [3] = test: VEGFA mRNA expression in HMEC by real-time quantitative PCR; type: cell-based, human; settings: 400 µg/ml final concentration, 6h, QPCR
protein kinase B (Akt) = test: Activation status of protein kinase B (pAkt) in HMEC by western blot; type: cell-based, human; settings: 400 µg/ml, immunoblot
[4] = day 1 post treatment, vehicle 16.9%
[5] = day 2 post treatment, vehicle 21.2%
[6] = day 3 post treatment, vehicle 45.9%
[7] = day 4 post treatment, vehicle 57.5%

| Substance | % healing (trans-dermal wounds; [4]) [%] | % healing (trans-dermal wounds; [5]) [%] | % healing (trans-dermal wounds; [6]) [%] | % healing (trans-dermal wounds; [7]) [%] | in vitro angiogenesis-inducing activity [1] | level of activation of Erk1 and 2 (MAPK) versus Control (MAPK (Erk1 and 2)) | increases of VEGFA-biosynthesis and excretion (VEGFA [2]; 400 µg/ml) | increase in VEGF protein within the culture medium (VEGFA [2]; peak at 400 µg/ml) | higher VEGFA mRNA than HMEC incubated without addition of peptide (Control) (VEGFA [3]) | level of activated Akt relative to HMEC incubated without peptide (Control) (protein kinase B (Akt); 10 min post incubation) | level of activated Akt relative to HMEC incubated without peptide (Control) (protein kinase B (Akt); 30 min post incubation) |
| --- | --- | --- | --- | --- | --- | --- | --- | --- | --- | --- | --- |
| Ac-ELDLQASL-NH2 [Peptide 7B, ELDLQASL] | 33.2 | 56.9 | 63.7 | 76.6 |  |  |  |  |  |  |  |
| Ac-QSQKVPRQVQS-NH2 [Peptide 11, QSQKVPRQVQS] | 41.9 | 52.1 | 58.4 | 64.4 | strong in vitro angiogenesis-inducing activity |  |  |  |  |  |  |
| Ac-RRTTQECPVRTSLD-NH2 [Peptide 7C, RRTTQECPVRTSLD] | 39.4 | 55.3 | 58.8 | 68.2 |  |  |  |  |  |  |  |
| Ac-TQECPVRTSLD-NH2 [Peptide 7A, TQECPVRTSLD] | 27.4 | 44.7 | 45.1 | 58.8 |  |  |  |  |  |  |  |
| Ac-TQECPVRTSLDRELDLQASL-NH2 [Peptide 7] | 52.8 | 60.1 | 65.6 | 82.9 | strong in vitro angiogenesis-inducing activity | not significant variations | about 2 folds | about 97% | about 170% | much higher level of activated Akt | much higher level of activated Akt |
| Ac-VSKDVCRL-NH2 [Peptide 10, VSKDVCRL] | 42.8 | 61.3 | 65.6 | 78.9 | strong in vitro angiogenesis-inducing activity | not significant variations |  |  | about 60% | much higher level of activated Akt | much higher level of activated Akt |
